# Article PMC4336329 (PLoS ONE, 2015)
# Hit rate of the full screen: of about 310,000 compounds, about 14,000 (4.5%) showed an effect of 50% or more. The effect is printed as a negative number. The list shows a part of the results.
# Target: human ether-à-go-go-related gene (hERG) potassium channel (human, UniProt Q12809)
# Assay: primary screen, population patch clamp on CHO cells stably expressing hERG
# 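Also: peak tail current of the secondary pulse compared with the same well before compound.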
# Sequence of human ether-à-go-go-related gene (hERG) potassium channel (Q12809 whole entry, looked up): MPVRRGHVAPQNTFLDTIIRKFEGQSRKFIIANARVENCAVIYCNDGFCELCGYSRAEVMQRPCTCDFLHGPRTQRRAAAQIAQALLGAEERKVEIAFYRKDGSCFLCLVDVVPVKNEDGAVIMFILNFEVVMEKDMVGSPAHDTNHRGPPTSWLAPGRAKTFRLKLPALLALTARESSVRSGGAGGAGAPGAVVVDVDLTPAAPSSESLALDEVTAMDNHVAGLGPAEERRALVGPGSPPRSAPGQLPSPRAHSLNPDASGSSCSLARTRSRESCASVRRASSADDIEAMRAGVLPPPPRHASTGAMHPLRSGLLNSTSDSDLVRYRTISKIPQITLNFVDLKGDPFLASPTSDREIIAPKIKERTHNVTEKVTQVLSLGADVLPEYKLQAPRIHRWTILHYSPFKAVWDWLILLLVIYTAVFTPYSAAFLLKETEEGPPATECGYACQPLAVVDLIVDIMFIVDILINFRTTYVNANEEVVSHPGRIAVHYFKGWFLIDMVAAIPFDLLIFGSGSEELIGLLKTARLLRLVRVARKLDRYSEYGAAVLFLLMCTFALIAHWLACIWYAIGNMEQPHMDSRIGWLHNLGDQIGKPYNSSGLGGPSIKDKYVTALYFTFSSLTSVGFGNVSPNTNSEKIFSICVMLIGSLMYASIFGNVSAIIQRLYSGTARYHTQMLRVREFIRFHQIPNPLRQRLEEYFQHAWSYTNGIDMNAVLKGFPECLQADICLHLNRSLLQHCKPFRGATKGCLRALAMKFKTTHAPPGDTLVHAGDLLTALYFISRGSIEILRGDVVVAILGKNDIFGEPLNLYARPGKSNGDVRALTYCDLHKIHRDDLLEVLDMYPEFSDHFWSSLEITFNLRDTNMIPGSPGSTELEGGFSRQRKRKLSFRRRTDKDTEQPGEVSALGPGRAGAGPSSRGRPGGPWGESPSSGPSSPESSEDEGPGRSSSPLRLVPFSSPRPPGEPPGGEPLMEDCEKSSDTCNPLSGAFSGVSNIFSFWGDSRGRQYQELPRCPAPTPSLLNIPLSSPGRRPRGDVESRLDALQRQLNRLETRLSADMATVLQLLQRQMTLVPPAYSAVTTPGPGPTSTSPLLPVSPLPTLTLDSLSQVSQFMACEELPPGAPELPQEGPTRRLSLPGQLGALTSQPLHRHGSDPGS
row,SMILES,"hERG current change (%, negative = inhibition) at 10uM"
1,CCOC(=O)c1cc(C)sc1NC(=O)c1ccc(Cl)s1,-13.6%
2,O=C1NC(=S)N(C(=O)c2ccc(F)cc2)/C1=C/c1ccccc1,-2.91%
3,CCCNc1nc(OC(C(F)(F)F)C(F)(F)F)nc(OC(C(F)(F)F)C(F)(F)F)n1,-0.729%
4,COCCCNC(=O)CSc1nc2cc3c(cc2c(=O)n1CCCC(=O)NCc1ccc(OC)cc1)OCO3,12.6%
5,Cc1noc(C)c1CSc1nnc2n(-c3ccccc3)c(=O)c3ccccc3n12,-8.97%
6,CN1CCN(c2ccc(CNS(=O)(=O)c3ccc(Cl)cc3)cc2)CC1,5.81%
7,COC(=O)c1ccc2c(c1)N(Cc1nc(-c3ccc(Cl)cc3)oc1C)C(=O)C1CCCN21 (stereo not drawn),-3.55%
8,Cc1cc(Oc2ccc(C(F)(F)F)cc2[N+](=O)[O-])c2c3c(c(=O)oc2c1)CCC3,19.5%
9,O=C(c1ccccc1)C(Sc1ncn[nH]1)c1ccccc1 (stereo not drawn),-0.568%
10,Cc1ccc(S(=O)(=O)N2CCC(C(=O)N3CCC[C@H]3C(=O)NC3CCS(=O)(=O)C3)CC2)cc1 (stereo partly drawn),-3.5%
11,CCN(C(=O)COc1ccc(C(=O)c2ccccc2)cc1)c1ccccc1,-18.9%
12,CC(=O)Nc1ccc(N(C(=O)c2ccco2)C(C(=O)NC2CCCCC2)c2ccccc2)cc1 (stereo not drawn),-9.56%
13,C/C(=N\NC(=O)CN1CCN(c2ccc(F)cc2)CC1)c1ccco1,-30.3%
14,CCOC(=O)C1(c2ccccc2)CCN(Cc2cccc(C(=O)O)c2)CC1.Cl,2.34%
15,CC(=O)Nc1ccc(C(=O)OCc2ccc(Cl)c(Cl)c2)cc1,6.4%
16,CC(=O)Nc1c(Nc2ccccc2)c2ccccc2oc1=O,3.92%
17,CCOc1cc(C)c(S(=O)(=O)NC2CC(C)(C)NC(C)(C)C2)cc1C,16.7%
18,COc1ccc(Cl)cc1NC(=O)c1noc(C)c1[N+](=O)[O-],-29.5%
19,COC(=O)/C(=C1/Oc2ccc(C(C)(C)C)cc2S1)C(F)(F)F,24.6%
20,Cc1ccccc1NC(=S)NCC(c1cccnc1)N(C)C (stereo not drawn),14.6%
21,COc1cccc(NC(=O)NC2(C(=O)N3CCC(O)CC3)CCCCC2)c1,16.4%
22,COc1ccccc1N(CN1C(=O)c2ccccc2C1=O)C(=O)c1cccc(C)c1,-20.7%

row,SMILES,"hERG current change (%, negative = inhibition) at 10uM"
1,Cc1ccc(C(NC(=O)N2CCN(C)CC2)C(Cl)Cl)cc1F (stereo not drawn),0.45%
2,Cc1sc(NC(=O)C2CC=CCC2C(=O)O)c(C(=O)OC(C)C)c1C (stereo not drawn),-4.12%
3,Cc1ccn(S(=O)(=O)c2ccc(N3CCCC3=O)cc2)n1,16.2%
4,O=C(N/N=C\C=C\c1ccco1)c1cc(-c2ccc3ccccc3c2)n[nH]1,-4.1%
5,Cc1cc(C)c2c(=O)n(CC(=O)Nc3ccc(Cl)cc3)sc2n1,8.25%
6,CC(C)(C)C(=O)Nc1c2c(nc3c1CCC3)CCCC2,1.53%
7,Cc1ccc(N(C(=O)C2CCCC2)C2C=CS(=O)(=O)C2)cc1 (stereo not drawn),3.58%
8,COc1ccc(OC)c(NC(=O)CSc2nc(N)c(-c3ccccc3)c(=O)[nH]2)c1,10.4%
9,COCCN(C(=O)Cc1cccs1)C(C(=O)NCc1ccc(OC)cc1)c1ccc(C(C)C)cc1 (stereo not drawn),-14.1%
10,CCN(CC)CCNCC(=O)Nc1ccc(Cl)cc1C(=O)c1ccccc1.O=C(O)C(=O)O,-75.2%
11,O=C(Oc1nsnc1N1CCOCC1)N1CCOCC1,15.3%
12,CC(=O)Nc1cccc2c1C(=O)N(c1cccc(OC(C)=O)c1)C2=O,1.17%
13,O=C(O)CCCC(=O)Nc1cc([N+](=O)[O-])ccc1O,18.4%
14,C#CCNC(=O)C1=C[C@H](c2csc3ccccc23)[C@@H](CCCO)[C@H](OCC)O1,-22.6%
15,COc1ccccc1N1CCN(C(=O)CCNS(=O)(=O)c2cc(Br)cnc2N)CC1,-13.1%
16,CCOC(=O)Nc1ccc2c(c1)nc(CN1CCN(C(C)=O)CC1)n2C,10%
17,CC[n+]1c(SC)ccc2cc(OC)ccc21.[O-][Cl+3]([O-])([O-])[O-],-10.6%
18,CCn1c(C)cc2c(c1=O)C(c1ccncc1)C(C#N)=C(N)O2 (stereo not drawn),2.4%
19,COc1cc(NC(=S)NC(=O)CCc2ccccc2)cc(OC)c1,0.899%
20,COc1ccccc1OCCNC(=O)c1cccc(S(=O)(=O)N2CC(C)OC(C)C2)c1 (stereo not drawn),-14.8%
21,COc1ccc(C2C(C(=O)NCc3ccco3)c3ccccc3C(=O)N2C)cc1 (stereo not drawn),20.5%
22,C=CCn1c(SCc2nc(N)nc(N3CCCCC3)n2)nnc1-c1ccco1,-6.39%

row,SMILES,"hERG current change (%, negative = inhibition) at 10uM"
1,OCC#CC[N+]1(CC#Cc2ccccc2)CCCC1.[Br-],14.5%
2,CC(C)CCNC(=O)c1onc(CSc2ccncc2)c1C(=O)NCCC(C)C,6.45%
3,Cc1ccc(SC(C)C(=O)Nc2cccnc2)cc1 (stereo not drawn),8.73%
4,COc1ccc(Br)cc1/C=N/n1nnnc1N,9.08%
5,O=c1[nH]c(CN2CCCCC2)nc2c1C1(CCCCC1)Cc1ccccc1-2,7.16%
6,CCOC(=O)c1ccc(N2C(=O)C(O)=C(C(C)=O)C2c2ccc(O)c(OC)c2)cc1 (stereo not drawn),6.04%
7,Cc1cc(N2CCN(C)CC2)nc2ccc(NC(=S)NC3CC3)cc12,3.2%
8,O=C(CN1CCCC1)NC(c1ccccc1)c1ccccc1.O=C(O)C(=O)O,-34.7%
9,COc1ccc(N(C(=O)COc2ccc(C)cc2)S(=O)(=O)c2ccc(C)cc2)cc1,-9.87%
10,OCC[C@@H]1C[C@H](O)[C@@H](O)[C@@]2(CCCc3ccccc3O2)O1,16.2%
11,COc1ccc(-n2c(SCC(=O)Nc3nccs3)nc3c(c2=O)SCC3)cc1,8.32%
12,CC(C)NC(=O)NNC(=O)c1cc(COc2cc(Cl)cc(Cl)c2)on1,2.67%
13,O=[N+]([O-])c1ccc(CSc2nc3ccccc3o2)cc1,11%
14,COC(=O)c1ccccc1NC(=O)c1ccco1,-6.46%
15,Cc1cc(NS(=O)(=O)c2ccc(N)cc2)no1,12.4%
16,Cc1cccc(-n2c(=O)[nH]c3c(C(N)=O)nc(C(C)C)nc32)c1,-11.9%
17,CCC(=O)NC(Cc1ccccc1)c1ccc2c(c1)OCCCO2 (stereo not drawn),7.51%
18,Cl.OC(CNC1CCCC1)COc1ccc(Cl)cc1 (stereo not drawn),-9.8%
19,O=C(O)c1ccc(NC(=S)NC(=O)c2cccc(COc3ccccc3)c2)cc1,25.6%
20,CCOC(=O)c1cn(CC(=O)Nc2cccc(Cl)c2)nn1,11.6%
21,O=C(Nc1cnc2ccccc2c1)c1cccc(-n2cnnn2)c1,-16.2%
22,O=C(NC(=S)Nc1ccc(CN2CCOCC2)cc1)c1ccc([N+](=O)[O-])cc1,-13%

row,SMILES,"hERG current change (%, negative = inhibition) at 10uM"
1,O=S(=O)(Nc1ccc(S(=O)(=O)N2CCCC2)cc1)c1ccc(F)cc1,-9.96%
2,CC1CC(C)CN(C(=O)CSc2nnc(-c3ccc(Cl)cc3)o2)C1 (stereo not drawn),4.29%
3,CC(C)N1CCC(=NNC(=O)c2cccs2)CC1,25.6%
4,Cc1ccc(SCC(=O)N(C)C2CCS(=O)(=O)C2)cc1 (stereo not drawn),9.08%
5,Oc1ccc2ccccc2c1/C=N/c1nccs1,18.8%
6,CC(Sc1nnc(CNc2cccc3ccccc23)n1-c1ccccc1)C(=O)N/N=C/c1ccco1 (stereo not drawn),-10.2%
7,Cc1ccc(C)c(N2CCN(S(=O)(=O)c3c(C)noc3/C=C/N(C)C)CC2)c1,2.28%
8,CCCCSc1nnc(-c2ccc(NC(=O)CC)cc2)n1C,1.51%
9,CC1=C(C(=O)Nc2ccccc2C)C(c2cccnc2)n2nc(CCCO)nc2N1 (stereo not drawn),6.31%
10,Cc1cc(C=O)c(C)n1CC1CCCO1 (stereo not drawn),14.7%
11,Cn1nccc1C(=O)Nc1ccc2c(c1)OCO2,10.8%
12,Cc1ccc(S(=O)(=O)NCCS(=O)(=O)N2CCN(c3ccc(F)cc3)CC2)cc1,-19%
13,COc1ccc(C2C3C=CCC(c4cccc(-c5ccc(C)cc5)c4)C3C(=O)N2Cc2ccccc2)cc1Cl (stereo not drawn),10.5%
14,COc1ccc(S(=O)(=O)N2CCCCCC2)cc1C(=O)N1CCN(c2ccccc2C)CC1,-48%
15,Cc1ccc(NC(=O)/C(=C\c2cccs2)NC(=O)c2ccccc2)cc1,-3.84%
16,O=C(CSc1nc2ccccc2[nH]1)c1ccccc1F,11.1%
17,O=C(NCCO)/C(=C\c1ccc2c(c1)OCO2)NC(=O)c1ccc(Br)cc1,-51.9%
18,COc1ccc(NC(=O)c2oc3ccccc3c2NC(=O)C(C)(C)C)cc1,11.3%
19,O=C(O)c1oc2ccccc2c1CSc1ccc(Cl)cc1,17.3%
20,O=C(N/N=C/c1ccccc1)c1ccc(-c2ccccc2)cc1,22.2%
21,Cc1cc(NC(=O)/C=C/c2ccc(Cl)cc2)no1,1.12%
